According to PubChem BioAssay (Tox21):
The shares of active, inactive and inconclusive entries below differ from those in the screen. For part of these data: No potency is given beside an inconclusive call; the fits are too rough. Calls of active or inactive are those of the source. Unless noted, calls come from the whole dose curve.

Tests used:
[1] = qHTS assay to identify small molecule antagonists of the sonic hedgehog signaling (Shh) pathway (AID 1259369); note: nearly all actives have a fitted effect of over 45% in size; for activity change, negative = inhibition: % is set by controls: 0 for no effect and ±100 for the full control effect
Outline: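 Antagonist mode: compound added to 3T3 Gli1-Luc cells followed by conditioned-medium stimulation, 24 h at 37 C, 5% CO2. Inhibition taken as loss of Gli1-driven luciferase luminescence.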

[2] = molecular target: Estrogen receptor beta (Homo sapiens) (UniProt Q92731); assay: qHTS assay to identify small molecule antagonists of the estrogen receptor beta (ER-beta) signaling pathway (AID 1259378; active = well fitted inhibition curve with a large enough effect in the signal ratio in the repeat runs, not every such curve was filed as active; inconclusive = weak or mixed curves, or effect the other way; inactive = no such curve, though single readings can be large or run the other way; the % refers to the signal ratio; for activity, negative = inhibition: % is set by controls: 0 for no effect and ±100 for the full control effect); settings: ER-beta-UAS-bla HEK293T, beta-lactamase FRET ratio, 16 h; activity, negative = inhibition: at 92.4 µM (top of the series) unless noted
Outline: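 ER-beta-UAS-bla HEK293T cells in 2% charcoal-stripped FBS medium treated with compound plus 1nM final 17-beta-estradiol for 16 hr at 37C. Beta-lactamase reporter read by FRET substrate fluorescence after 2 hours at room temperature.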

[3] = molecular target: Progesterone receptor (Homo sapiens) (UniProt P06401); assay: qHTS assay to identify small molecule antagonists of the progesterone receptor (PR) signaling pathway (AID 1346795; active = well fitted inhibition curve with a large enough effect in the signal ratio in the repeat runs, not every such curve was filed as active; inconclusive = weak or mixed curves; the % refers to the signal ratio; for activity change, negative = inhibition: % is set by controls: 0 for no effect and ±100 for the full control effect); settings: PR-UAS-bla HEK293T, beta-lactamase FRET ratio, 16 h; activity change, negative = inhibition: at 92.4 µM (top of the series) unless noted
Outline: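 Antagonist mode: compounds tested against 1 nM (final) promegestone stimulation in HEK293T cells expressing PR-UAS-bla reporter, 16 hr at 37C, 5% CO2; beta-lactamase activity detected via B/G FRET substrate after 2 hr at room temperature.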

[4] = qHTS assay to identify small molecule agonists of the progesterone receptor (PR) signaling pathway - cell viability counter screen (AID 1346799); note: nearly all actives have a fitted effect of over 45% in size
Outline: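 Cells (PR-UAS-bla HEK293T) are plated at 3,000/well in 2% charcoal-stripped FBS medium, rested 6 hr, dosed and incubated 16 hr at 37C. CellTiter-Glo is then added and luminescence measured after 30 min at room temperature.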

[5] = qHTS assay to identify small molecule agonists of the TGF-beta/Smad signaling pathway (AID 1346859; active = well fitted activation curve with a large enough effect in the signal ratio in the repeat runs, not every such curve was filed as active; inconclusive = weak or mixed curves; the % refers to the signal ratio); settings: SBE-bla HEK293T, TGF-beta/Smad beta-lactamase reporter, 5 h; activation: at 76.8 µM (top of the series)
Outline: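 Reporter line: HEK 293T with stably integrated SBE-controlled beta-lactamase. Compound exposure lasts 5 hr at 37 C and 5% CO2; substrate loading follows for 2 hr at room temperature, with emission read at 460 and 530 nm.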

[6] = qHTS assay to identify small molecule agonists of the androgen receptor (AR) signaling pathway in the presence of an antagonist - cell viability counter screen (AID 1259379; active = well fitted curve in the direction sought with a large enough effect in the repeat runs; inconclusive = weak or mixed curves; inactive = no such curve, though single readings can be large; an effect the other way counts as inactive or inconclusive; note: nearly all actives have a fitted effect of over 25% in size)
Outline: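 Cytotoxicity counter-screen run in the same wells as the nilutamide-challenged (3.0 µM final) AR agonist assay in MDA-kb2 cells. Compounds tested at 15 concentrations for 16 h, 37 °C without CO2; CellTiter-Fluor fluorescence read.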

[7] = qHTS assay to identify small molecule antagonists of the estrogen receptor beta (ER-beta) signaling pathway - cell viability counter screen (AID 1259382; active = well fitted curve in the direction sought with a large enough effect in the repeat runs; inconclusive = weak or mixed curves; inactive = no such curve, though single readings can be large; an effect the other way counts as inactive or inconclusive; note: nearly all actives have a fitted effect of over 55% in size)
Outline: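 Cytotoxicity was measured in the same wells by CellTiter-Glo luminescence after 30 min at room temperature. Cells were ER-beta-bla HEK293T in charcoal-stripped serum, given compound together with 1 nM E2 and incubated 16 h at 37C.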

[8] = molecular target: Thyrotropin receptor (Homo sapiens) (UniProt P16473); assay: qHTS assay to identify small molecule antagonists of the thyroid stimulating hormone receptor (TSHR) signaling pathway (AID 1259385); settings: TSHR-HEK293 cAMP HTRF, TSH-stimulated antagonist mode; activity change, negative = inhibition: at 92.4 µM (top of the series) unless noted; note: nearly all actives have a fitted effect of over 20% in size
Outline: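 TSHR-HEK293 cells (800/well) plated 18 h, then compounds with Ro20-1724 and TSH at 1.5 ng/mL final, 30 min at room temperature. cAMP quantified by HTRF (cAMP-d2/anti-cAMP-cryptate, 1 h); 15 concentrations in triplicate.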

[9] = qHTS assay to identify small molecule antagonists of the TGF-beta/Smad signaling pathway - cell viability counter screen (AID 1346824; active = well fitted curve in the direction sought with a large enough effect in the repeat runs; inconclusive = weak or mixed curves; inactive = no such curve, though single readings can be large; an effect the other way counts as inactive or inconclusive; note: nearly all actives have a fitted effect of over 50% in size)
Outline: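 SBE-bla HEK 293T cells, incubated overnight, then compound plus 0.25 ng/mL TGF-beta1 (stock added) for 5 hr at 37 C. Viability was read in the same wells by CellTiter-Glo luminescence after 30 min at room temperature.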

[10] = qHTS assay to identify small molecule agonists of the estrogen receptor alpha (ER-alpha) signaling pathway in the presence of an antagonist - cell viability counter screen (AID 1259386; active = well fitted curve in the direction sought with a large enough effect in the repeat runs; inconclusive = weak or mixed curves; inactive = no such curve, though single readings can be large; an effect the other way counts as inactive or inconclusive; note: nearly all actives have a fitted effect of over 30% in size)
Outline: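 Compounds tested at 15 concentrations for 22 h at 37C alongside 10.0nM (final) ICI-182,780 antagonist, in VM7Luc4E2 cells grown in phenol red-free, charcoal-stripped medium. Viability read by CellTiter-Fluor fluorescence after 1 h reagent incubation.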

[11] = qHTS assay to identify small molecule antagonists of the progesterone receptor (PR) signaling pathway - cell viability counter screen (AID 1346798; active = well fitted curve in the direction sought with a large enough effect in the repeat runs; inconclusive = weak or mixed curves; inactive = no such curve, though single readings can be large; an effect the other way counts as inactive or inconclusive; note: nearly all actives have a fitted effect of over 50% in size)
Outline: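 Counter screen for cytotoxicity: viability of PR-UAS-bla HEK293T cells was measured with CellTiter-Glo luminescence following 16 hr compound exposure in the presence of R5020.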

[12] = qHTS assay to identify small molecule agonists of the estrogen receptor beta (ER-beta) signaling pathway - cell viability counter screen (AID 1259380; active = well fitted curve in the direction sought with a large enough effect in the repeat runs; inconclusive = weak or mixed curves; inactive = no such curve, though single readings can be large; an effect the other way counts as inactive or inconclusive; note: nearly all actives have a fitted effect of over 30% in size)
Outline: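 Cell viability counter screen: CellTiter-Glo luminescence (30 min, room temperature) measured in the same wells as the beta-lactamase readout, after 16 hr compound exposure at 37C of ER-beta-bla HEK293T cells in 2% charcoal-stripped FBS medium.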
Potency is the fitted concentration of half-maximal effect; tags give direction and shape of the fitted curve or compound fluorescence and quenching.

Chain of UniProt Q92731 (Q92731 whole entry, looked up): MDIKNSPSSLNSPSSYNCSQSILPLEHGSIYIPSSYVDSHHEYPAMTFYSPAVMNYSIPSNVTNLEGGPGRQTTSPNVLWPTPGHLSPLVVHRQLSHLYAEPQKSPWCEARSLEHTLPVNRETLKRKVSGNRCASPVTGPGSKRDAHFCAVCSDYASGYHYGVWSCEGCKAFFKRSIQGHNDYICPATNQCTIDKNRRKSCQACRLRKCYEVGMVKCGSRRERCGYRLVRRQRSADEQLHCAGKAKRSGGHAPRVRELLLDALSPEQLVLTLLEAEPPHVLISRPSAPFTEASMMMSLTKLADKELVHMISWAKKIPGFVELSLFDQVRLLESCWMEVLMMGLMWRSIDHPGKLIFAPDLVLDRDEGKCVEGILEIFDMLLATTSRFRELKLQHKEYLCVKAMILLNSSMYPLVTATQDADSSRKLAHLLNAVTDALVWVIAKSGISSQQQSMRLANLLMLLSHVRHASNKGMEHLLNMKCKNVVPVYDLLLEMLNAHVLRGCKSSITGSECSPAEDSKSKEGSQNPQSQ
Chain of UniProt P06401 (P06401 whole entry, looked up): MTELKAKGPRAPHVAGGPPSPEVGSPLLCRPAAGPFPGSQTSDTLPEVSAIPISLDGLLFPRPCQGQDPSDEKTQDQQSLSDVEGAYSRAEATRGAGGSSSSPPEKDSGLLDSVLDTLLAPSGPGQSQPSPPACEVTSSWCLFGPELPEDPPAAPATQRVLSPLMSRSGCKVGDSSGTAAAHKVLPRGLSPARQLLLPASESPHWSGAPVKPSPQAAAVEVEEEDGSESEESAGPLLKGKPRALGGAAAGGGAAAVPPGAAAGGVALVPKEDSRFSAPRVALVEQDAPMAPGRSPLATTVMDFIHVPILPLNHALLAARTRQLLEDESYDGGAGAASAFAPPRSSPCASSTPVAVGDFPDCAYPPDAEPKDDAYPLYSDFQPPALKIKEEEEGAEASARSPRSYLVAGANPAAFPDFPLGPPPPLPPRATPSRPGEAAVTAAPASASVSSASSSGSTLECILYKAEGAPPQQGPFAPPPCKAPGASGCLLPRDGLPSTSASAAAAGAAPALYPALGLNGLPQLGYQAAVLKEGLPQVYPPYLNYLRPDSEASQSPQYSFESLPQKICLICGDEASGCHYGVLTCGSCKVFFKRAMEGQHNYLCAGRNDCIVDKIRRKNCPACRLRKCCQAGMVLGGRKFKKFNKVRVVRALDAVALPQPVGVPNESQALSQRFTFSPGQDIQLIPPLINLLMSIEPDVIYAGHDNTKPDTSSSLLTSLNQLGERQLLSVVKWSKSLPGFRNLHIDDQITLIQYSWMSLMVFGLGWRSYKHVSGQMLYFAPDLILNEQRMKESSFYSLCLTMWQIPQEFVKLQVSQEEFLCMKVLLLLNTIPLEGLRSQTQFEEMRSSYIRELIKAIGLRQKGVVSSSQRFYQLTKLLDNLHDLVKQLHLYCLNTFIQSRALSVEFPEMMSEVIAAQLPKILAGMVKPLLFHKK
Chain of UniProt P16473 (P16473 whole entry, looked up): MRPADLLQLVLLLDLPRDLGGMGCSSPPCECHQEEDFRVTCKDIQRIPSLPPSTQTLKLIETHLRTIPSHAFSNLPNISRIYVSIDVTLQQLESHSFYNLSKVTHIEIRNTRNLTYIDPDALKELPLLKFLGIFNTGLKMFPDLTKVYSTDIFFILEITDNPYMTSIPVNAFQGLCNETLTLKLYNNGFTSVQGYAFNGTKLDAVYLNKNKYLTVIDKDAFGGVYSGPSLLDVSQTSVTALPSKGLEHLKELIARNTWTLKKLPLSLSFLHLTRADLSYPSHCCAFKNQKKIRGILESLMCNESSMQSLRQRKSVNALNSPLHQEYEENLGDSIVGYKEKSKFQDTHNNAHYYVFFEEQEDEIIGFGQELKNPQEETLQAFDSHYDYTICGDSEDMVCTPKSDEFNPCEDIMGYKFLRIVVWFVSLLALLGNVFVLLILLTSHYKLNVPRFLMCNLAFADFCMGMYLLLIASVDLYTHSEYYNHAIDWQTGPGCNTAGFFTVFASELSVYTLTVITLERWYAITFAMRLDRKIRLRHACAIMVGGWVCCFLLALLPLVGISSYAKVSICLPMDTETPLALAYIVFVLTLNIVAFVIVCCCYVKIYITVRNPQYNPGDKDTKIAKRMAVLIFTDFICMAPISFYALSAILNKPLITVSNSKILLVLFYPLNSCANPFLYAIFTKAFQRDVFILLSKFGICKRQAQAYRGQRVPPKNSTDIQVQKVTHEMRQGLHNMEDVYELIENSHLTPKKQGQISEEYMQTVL

For `CC(=O)O[C@H]1C[C@@H]2CC[C@@]1(C)C2(C)C`, the Potency [1] was inconclusive [inhibitor, single point], the Potency [2] was “inactive” and the Potency [3] was “inactive”. The Potency [4] was “inactive”.

With `O=C(Nc1ccccc1)c1cc([N+](=O)[O-])ccc1Cl` the Potency [1] was active: 21.7 µM, the Potency [2] was active: 48.6 µM and the activity change, negative = inhibition [3] was inconclusive: -47.1%. The Potency [5] was inconclusive [rising, partial curve].

With `COc1ccc(OC)c(N=Nc2c(O)ccc3ccccc23)c1` the Potency [1] was inconclusive [inhibitor, partial curve, poor fit], the Potency [6] was active: 24.3 µM and the Potency [7] was inconclusive [cytotoxic, partial curve]. For the same compound, the Potency [8] was active: 61.1 µM, the Potency [4] was inconclusive [rising, partial curve] and the Potency [9] was inconclusive [cytotoxic, single point].

With `CC1CC(O)CC(C)(C)C1` (stereo unspecified) the Potency [1] was “inactive”, the Potency [2] was “inactive” and the Potency [10] was “inactive”. For the same compound, the Potency [11] was inconclusive [cytotoxic, full curve] and the Potency [4] was inconclusive [cytotoxic, full curve].

With `O=C(CS)OCCOC(=O)CS` the Potency [1] was inconclusive [inhibitor, partial curve, poor fit], the Potency [2] was inconclusive [activator, partial curve, poor fit] and the Potency [11] was inconclusive [cytotoxic, single point]. The Potency [4] was “inactive”.

For `COc1cc2c(N3CCN(C(=O)Nc4ccc(OC(C)C)cc4)CC3)ncnc2cc1OCCCN1CCCCC1`, the Potency [1] was inconclusive [inhibitor, single point], the Potency [6] was inconclusive [cytotoxic, partial curve] and the Potency [12] was active: 18.8 µM. For the same compound, the Potency [10] was inconclusive [cytotoxic, full curve] and the Potency [11] was “inactive”.

In the case of `C=C[Si]1(C)O[Si](C)(C=C)O[Si](C)(C=C)O[Si](C)(C=C)O1` (stereo unspecified), the Potency [1] is reported as active: 30.6 µM, the Potency [2] is reported as “inactive” and the Potency [11] is reported as “inactive”.

For `ClC(Cl)Cl`, the Potency [1] was inconclusive [inhibitor, full curve], the Potency [2] was “inactive” and the Potency [3] was inconclusive [falling, single point]. For the same compound, the Potency [11] was inconclusive [cytotoxic, single point] and the Potency [4] was inconclusive [cytotoxic, single point].
